In the supplement of paper PMC11417369:
± gives the standard deviation of the averaged measurements. The list shows a part of the results.

tested on: PfAP2-G AP2 domain (GST-tagged); test: gcPBM binding intensity (ln(normalized median fluorescence intensity)); higher = stronger DNA binding
How it was run: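 Each value is the highest Masliner-normalised natural-log median intensity across replicate spots of either orientation of a probe. The probes were primer-extended double-stranded 36-bp intergenic genomic sequences on an Agilent 4 × 180k array, alongside negative controls, exposed for 1 h to GST-tagged P. falciparum DNA-binding domains expressed in E. coli. Bound protein was picked up with Alexa488 anti-GST antibody and scanned at 488 nm.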

Sequence | gcPBM binding intensity (ln)
AAAAAAAATATACATACATGCATACATAAGTTTCTA [TGCATGCA_site998] | 9.82 ± 0.071
TATATATATGGACACACACACACATATATATATATA [CACACA_site6121] | 10.9 ± 0.73
TTTGTGTATATATAATGTACATTATATTTTTATTAT [XGTACX_site6506] | 10.9 ± 0.53
AGTAGATATAATATATGTACATATATATATATATAT [XGTACX_site7186] | 11.2 ± 0.53
AAAAAAAAAAAAAAATGTACATATATATATATATTA [XGTACX_site7330] | 11 ± 0.59
ATAAAATAAGACAAAAAAAAAATATATATATATATA [TGCATGCA_negctrl_site314] | 9.87 ± 0.5
CCTTGTCTTTTTTTTTTTTTTTTTTCTTCTTATTTT [GTGCAC_negctrl_site523] | 10 ± 0.014
ATATATTGAAAATATAGTACATAATAAATGTTCTTT [XGTACX_site8474] | 11 ± 0.71
TTTTTTTTTTTTTTTTTTTTTTTTTTTTTTTGGGGG [CACACA_negctrl_site1570] | 10.2 ± 0.12
TGCATATACTCAAGCACACATATATATATATATATA [CACACA_site4733] | 10.1 ± 0.33
ATATTAAACAAACACACACACATATATATATATATA [CACACA_site3383] | 10.1 ± 0.32
AATTAATGGTTAAAGGTGCACAATACATATATTACA [GTGCAC_site9943] | 10.6 ± 0.47
TATATACATAAACACACACACACATATATATATATA [CACACA_site8707] | 10.4 ± 0.64
AATAAATTTAAACACACACACACATATATATATATA [CACACA_site4621] | 10.2 ± 0.38
ATAATGTTCACATAGGTGCACTAATATAATTATCCA [GTGCAC_site9981] | 10.5 ± 0.32
CATAATAGTTATAAAATACACACCAGGCATGATAAA [CACACA_site329] | 9.845 ± 0.049
AAAAAAAAAAAAAAAAGTACTCAATAATAATTACAT [XGTACX_site670] | 11.5 ± 0.85
ATATACACCTGAGAGGTGCATATATATAAAATTTAC | 10 ± 0.32
TAGTATTTATATGATTAACACACATATGGGTATTAA [CACACA_site8363] | 10.2 ± 0.45
AATGTAGTTTATCGATGTACACAAAATAAAGAGAAG [XGTACX_site6956] | 11.4 ± 0.81
CCGTACAATTTTGTCACACATAAAATACTTATGTAT [CACACA_site4871] | 10.5 ± 0.25
GTAATTTTTTTCTATACACACATATATATAATATAT [CACACA_site2655] | 10.2 ± 0.15

Sequence | gcPBM binding intensity (ln)
AATATAAATATAAATATAAATAAATAAATAAATAAA [CACACA_negctrl_site291] | 9.465 ± 0.035
CATTTATATAAAGAATGTACACACAGAAATGCACAC [XGTACX_site4718] | 11.4 ± 0.85
ATAACTTTTATTTGTACACACATACATCTATATTAT [CACACA_site6595] | 11.4 ± 0.77
AGTAAAAGAAAGCACACACACATGTATTTATGTATG [CACACA_site5998] | 9.995 ± 0.049
AAAGTAAAAGGGTTTGGTACACATATAATATATTAG [XGTACX_site6036] | 11.1 ± 0.46
AAAACCTAGTGCATTTGTACATATTTCAATTTTAAA [XGTACX_site4582] | 10.9 ± 0.5
TAAAAAATACAAGAGTGTACAAAATTTTTCTAAATG [XGTACX_site5334] | 11 ± 0.5
TATATGTATCCATTATGTACATAATAGTAATATAAT [XGTACX_site4008] | 11.1 ± 0.66
TATATTTATTTTCTGTGTACACATATGTTGTGTATT [XGTACX_site7640] | 11.6 ± 1
CTATATATTTTTTCTTAACACACATATATAAAATAA [CACACA_site9165] | 10.1 ± 0.42
TATACGTGTTTTATTTGTACTTAAGCAGGTAAGCAT [XGTACX_site193] | 11 ± 0.57
ATTAAAAAAAAAAAAAAAAAAAAAAAAAAAAAAAAA [CACACA_negctrl_site1060] | 9.72 ± 0.17
ATTGATAAATTAACTAGTACACATATAAATATATTA [XGTACX_site2325] | 11.3 ± 0.93
TTATTTTTTAATTATATTCAAAATTAAAAAAAAAAA [XGTACX_negctrl_site226] | 9.64 ± 0.29
AATATAAATGTGATTACACACAACAGATTTAAATGG [CACACA_site4802] | 10.1 ± 0.13
CACACGCACGAACACACACACATATAAATATAAATA [CACACA_site6299] | 10.4 ± 0.5
ATATATTATTATACATGTACATATATAGATATATAT [XGTACX_site4358] | 11.1 ± 0.59
TCTTATAAAGGTAATTGTACATATTTATAATTTCTT [XGTACX_site4847] | 11 ± 0.49
GTGAAAGGAAAAGTTGAACACACAAAGTAAACTATA [CACACA_site9178] | 10.18 ± 0.014
AATAATATTTAATACGCACACAATAATAATATAAAA [CACACA_site1763] | 10.4 ± 0.32
AAAAAAAAGAATAGCACACACACATATATAAATATA [CACACA_site630] | 9.96 ± 0.15
TATAATGGTTCTGGTGTGCACCATGACAGAATCAAG | 10.6 ± 0.45

Sequence | gcPBM binding intensity (ln)
AACAATAATTTTGAATGTACATATAAATATTTTTAT [XGTACX_site5501] | 11.1 ± 0.59
ATATACATATAGGATGCACACATAATTCAAATACAA [CACACA_site8120] | 10.1 ± 0.22
CAAAATAAAAATAACACACACATTTATATAAATACA [CACACA_site4790] | 9.935 ± 0.035
ACAGTTAAAACAATAACACACAAAGAAAAAAAAAAA [CACACA_site737] | 10.1 ± 0.28
TATAATATATTATATACACACATTATAAAATACCCA [CACACA_site4858] | 10.12 ± 0.092
GTTAATTCTATGAATTGTACTTAAATATAATTATAT [XGTACX_site2785] | 11.1 ± 0.95
ATAAATACTAAAAATGAAATATAGAAAATAGCAATA [CACACA_negctrl_site501] | 9.85 ± 0.014
TATATTTTTATTGAACGTACAAAAAGTCGAAAACAG [XGTACX_site3967] | 11.4 ± 0.74
TTTAAATACAGACATACACACATACACGCACATATA [CACACA_site6400] | 10.5 ± 0.3
AGGTAGAAATTGTTAAAAAATCATACATATTATATA [CACACA_negctrl_site622] | 9.81 ± 0.099
ATTCTATATGTTACATAAACCTATATTTTTTTTTTT [CACACA_negctrl_site860] | 9.83 ± 0.085
ATAAAGCCATACAATACACACATTTTACATGTCGGT [CACACA_site3265] | 10.01 ± 0.057
TAAGCCACCATATTTACACACACATCAAAATGTATT [CACACA_site1815] | 10.06 ± 0.057
GAAAAAAGAAATTTATGTACATACATATATATATAT [XGTACX_site7888] | 11.2 ± 0.76
CATTCAAAGAAAAACAGTACGTGTAGCAAAAGGCCT [XGTACX_site266] | 10.9 ± 0.57
TAATATTGACTATATACACACATATAAATATAAATA [CACACA_site6414] | 9.91 ± 0.11
TATATATATATATATACATGCATCATTGTTCACCTT [TGCATGCA_site177] | 9.94 ± 0.099
TTTTTTTTTTAATTAACACACATAAATATAAATATA [CACACA_site7527] | 9.99 ± 0.4
AAAAAAAAAAAAAAAAGTACATATGCTCAAGAGATG [XGTACX_site3783] | 11.5 ± 0.82
GCTGAAAATAAATGAAGTACACAAGTAATATATATA [XGTACX_site6205] | 11.5 ± 0.95
TAAATAATATAATTATGTACGTATTTCTTTATTTTA [XGTACX_site8410] | 11.4 ± 0.83
ATCATTTAAACAATATGTACTCATTGTAGATATGGT [XGTACX_site5088] | 11.3 ± 0.85

Sequence | gcPBM binding intensity (ln)
TGAATAAAATATTATACACACATATGTATTTAACAT [CACACA_site4694] | 9.955 ± 0.007
AATGGGATCATGGTATGTACTTACACAAATGAATTA [XGTACX_site5389] | 11.3 ± 0.59
TTGTATTTACTATACACACACATACATACATACATA [CACACA_site4603] | 10.2 ± 0.27
TATTCCCCCAAACACACACACACACCCACATACCAC [CACACA_site2304] | 11.1 ± 0.78
TAAAAATAATATTAATGTACATTACATATTAATATA [XGTACX_site1019] | 10.8 ± 0.47
CGTTACACAAAAATATGTACATATATACATATATAT [XGTACX_site4631] | 11.1 ± 0.64
TATAAATATAAATACTGTACATTATATTATATAATA [XGTACX_site2480] | 11 ± 0.71
ATATATATATATATGTGTACATATTAGTGATATAAT [XGTACX_site7161] | 11.4 ± 0.8
AATGCGCATTTTTTTTTTTTTTTTTTTTTTTTTTTT [XGTACX_negctrl_site258] | 11.1 ± 0.7
TTTCTTTTTTTTTTTTCATTGATCCATTTATGATTA [TGCATGCA_negctrl_site225] | 9.67 ± 0.071
TTATAGGTTCTATACATATATTTATATATGTACAGA [CACACA_negctrl_site60] | 11.3 ± 0.81
TTTTTAAAAATATACACACACAGATATTATAGATAT [CACACA_site6511] | 10.2 ± 0.11
CAAGCTATGTATTCTACACACACATACACCCATATA [CACACA_site9133] | 10.4 ± 0.34
TTCAATAGTAAGTATACACACATATATATATATAAA [CACACA_site2687] | 10.1 ± 0.26
GAAAATATTATAGCACCACACACTTATTTTATATAT [CACACA_site2265] | 10.07 ± 0.042
AACGTTAAAAAAAAAATATATATAAGGAGAAAGCAC [XGTACX_negctrl_site338] | 10.1 ± 0.29
TATGCGTCTTGCCTTGCACACTTTTATGAAAAAAAA [CACACA_site5174] | 10.3 ± 0.42
AGTATACATATATATACACACACACCGATATATATA [CACACA_site8357] | 9.88 ± 0.014
TAAAAAAAATAAACGTGTACATAAAAATGAATATGT [XGTACX_site119] | 11.4 ± 0.81
TTAATATATTAAATCTTACACACTAAAAAATATGTA [CACACA_site307] | 9.93 ± 0.2
AAAAAAAAAAATATATTATTTTACTTGTTTATTTTT [GTGCAC_negctrl_site435] | 9.27 ± 0.25
AATAATCAAATATTAAAAATTGTGCAAAAAAAAAAA [XGTACX_negctrl_site399] | 9.86 ± 0.14
